Measurements as given in paper PMC7150991 (Viruses, 2020).

Test system: influenza A virus nucleoprotein
Conditions: A549 cells, 12 h p.i., about 70% in control cells

Row | Structure (SMILES) | NP colocalized with nuclear staining (BBR 20 or 40 µM) | NP colocalized with nuclear staining (U0126 10 µM)
1 | COc1ccc2cc3[n+](cc2c1OC)CCc1cc2c(cc1-3)OCO2 [BBR, Berberine chloride hydrate] | More than 90% | 
2 | N#CC(=C(/N)Sc1ccccc1N)/C(C#N)=C(/N)Sc1ccccc1N [U0126, reference compound] |  | More than 90%

Like-named read-outs stand apart in the source and are kept apart here.
